Test results from patent publication US12421317B2, “Polynucleotides encoding anti-glucagon-like peptide 1 receptor (GLP1R) antagonist antibodies” (Regeneron Pharmaceuticals, Inc., priority 2020, dated 2025).

How the values were obtained:
GLP1R humanized mice = assay: GLP1-induced hypoglycemia (Exendin-4 challenge) in GLP1R humanized mice, glucose AUC (Example 6); type: in vivo; conditions: for Normalized glucose AUC during Exendin-4 challenge: Exendin-4 at 0-min, mean
Procedure: Thirty-nine, 2.5-month-old male GLP1R humanized mice were randomly divided into one group of sixteen mice, two groups of eight mice, and one group of seven mice. On Day 0, the group of sixteen animals (Groups 1 and 2) were administered subcutaneously (s.c.) with a hIgG4 isotype control antibody (referred to as isotype control, dose of 10 mg/kg). […] The group of seven animals (Group 5) was administered s.c. (dose of 10 mg/kg) with mAb36986. […] […] At the same time point, animals in Groups 3, 4, and 5 were administered i.p. with Exendin-4 (dose of 0.01 mg/kg). For all animals, blood glucose levels were measured with a handheld glucometer immediately before and 15, 30, 60, and 120 minutes after saline or Exendin-4 administration. All animals remained in their assigned groups until the study completion on Day 80. With animals in Groups 1, 2, 4, and 5, the Exendin-4 challenge was repeated on Days 3, 7, 15, 21, 29, 65, and 80.
The AUC value of each animal at each challenge was normalized to the mean AUC value of Group 1. Statistical analyses were performed by one-way ANOVA followed by Bonferroni post-hoc tests, comparing Groups 1, 3, 4, or 5 to Group 2, for each challenge.

[1] = molecular target: T1, hdesA-GLP1_GLP1R-MMH (in-line fusion protein of human desA-GLP1 and GLP1R-MMH) (Homo sapiens, UniProt P43220); assay: SPR (Biacore 4000) binding of captured GLP1R mAbs to hdesA-GLP1_GLP1R-MMH
T1 construct: an in-line fusion protein of human desA-GLP1 and GLP1R-MMH (hdesA-GLP1_GLP1R-MMH)
T1 sequence (P43220 with tags, fused parts or gaps): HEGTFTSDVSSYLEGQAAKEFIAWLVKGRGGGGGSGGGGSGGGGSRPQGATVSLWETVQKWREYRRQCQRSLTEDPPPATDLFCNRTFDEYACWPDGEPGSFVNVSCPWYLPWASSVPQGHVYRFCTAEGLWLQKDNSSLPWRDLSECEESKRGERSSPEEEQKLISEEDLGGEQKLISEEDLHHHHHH
Procedure: The equilibrium dissociation constant (KD) for GLP1R binding to selected GLP1R monoclonal antibodies (mAbs) was determined using a real-time surface plasmon resonance biosensor using a Biacore 4000 instrument. All binding studies were performed in 10 mM HEPES, 150 mM NaCl, 3 mM EDTA, and 0.05% v/v Surfactant Tween-20, pH 7.4 (HBS-ET) running buffer at 25° C. and 37° C. The Biacore CM5 sensor chip surface was first derivatized by amine coupling with human Fc specific mouse mAb to capture different GLP1R mAbs. Different concentrations (100, 25, and 6.25 nM) of the N-terminal region of human GLP1R-MMH (hGLP1R-MMH; SEQ ID NO: 59), human GLP1R expressed with mouse IgG2a Fc (hGLP1R-mFc; SEQ ID NO: 63), an in-line fusion protein of human desA-GLP1 and GLP1R-MMH (hdesA-GLP1_GLP1R-MMH; SEQ ID NO: 62), Macaca fascicularis GLP1R-MMH (mfGLP1R-MMH; SEQ ID NO: 60) or 100 nM mouse GLP1R-MMH (mGLP1R-MMH; SEQ ID NO: 61) prepared in HBS-ET running buffer were injected over the GLP1R mAb captured surface for 150 sec at a flow rate of 30 μL/min and their dissociation in HBS-ET running buffer was monitored for 10 minutes. At the end of each cycle, the GLP1R mAb capture surface was regenerated using a 12 sec injection of 20 mM phosphoric acid.
The association rate (ka) and dissociation rate (Kd) were determined by fitting the real-time binding sensorgrams to a 1:1 binding model with mass transport limitation using Scrubber 2.0 c curve-fitting software. Binding dissociation equilibrium constant (KD) and dissociative half-life (t½) were calculated from the kinetic rates as: […]

B1: mAb36986: fully human anti-GLP1R antagonist antibody; HCVR/LCVR SEQ ID NOs: 2/10; heavy/light chain 18/20 (antibody)
heavy: QVQLVQSGTEVKKPGASVKVSCMASGYTFTTYGISWVRQAPGQGLEWMGWISAYNGNTKYAQRLQGRVTMTTDTSTTTAYMGLRGLRSDDTAVYFCARVTLSGRFDYWGQGTLVTVSPASTKGPSVFPLAPCSRSTSESTAALGCLVKDYFPEPVTVSWNSGALTSGVHTFPAVLQSSGLYSLSSVVTVPSSSLGTKTYTCNVDHKPSNTKVDKRV[human IgG4 Fc with S228P (EU numbers) not printed]
light: DIQMTQSPSSLSASVGDRVTITCQASQDISDYLNWYQQKPGKAPKLLIYDASNLETGVPSRFSGSGSGTDFTFTIRSLQPEDIATYYCQQYDNLPYTFGQGTKLEIKRTVAAPSVFIFPPSDEQLKSGTASVVCLLNNFYPREAKVQWKVDNALQSGNSQESVTEQDSKDSTYSLSSTLTLSKADYEKHKVYACEVTHQGLSSPVTKSFNRGEC
notes: fully human anti-GLP1R antagonist antibody; heavy/light chain 18/20
Q: Which “correction of Exendin-4 induced hypoglycemia” value (GLP1R humanized mice; 10 mg/kg s.c.) does the source give for B1 here?
A: correction of Exendin-4 induced hypoglycemia when Exendin-4 challenge was performed 1, 3, 7, 15, 21, 29, and 65 days post mAb36986 administration, but not when the challenge was performed 80 days post mAb36986 administration

Q: And the “Normalized glucose AUC during Exendin-4 challenge” value (GLP1R humanized mice; 1 d (= 24 h) post test article, test article 3 mg/kg s.c.)?
A: 96.5**** % of Group 1

Q: And the “Normalized glucose AUC during Exendin-4 challenge” value (GLP1R humanized mice; 1 d (= 24 h) post test article, test article 10 mg/kg s.c.)?
A: 106.7**** % of Group 1

Q: What about the “Normalized glucose AUC during Exendin-4 challenge” value (GLP1R humanized mice; 3 d post test article, test article 3 mg/kg s.c.) of the same molecule?
A: 108.7**** % of Group 1

Q: What about the “Normalized glucose AUC during Exendin-4 challenge” value (GLP1R humanized mice; 3 d post test article, test article 10 mg/kg s.c.) of the same molecule?
A: 116.6**** % of Group 1

Q: What about the “Normalized glucose AUC during Exendin-4 challenge” value (GLP1R humanized mice; 7 d post test article, test article 3 mg/kg s.c.) of the same molecule?
A: 108.6**** % of Group 1

Q: And the “Normalized glucose AUC during Exendin-4 challenge” value (GLP1R humanized mice; 7 d post test article, test article 10 mg/kg s.c.)?
A: 107.7**** % of Group 1

Q: What about the “Normalized glucose AUC during Exendin-4 challenge” value (GLP1R humanized mice; 15 d post test article, test article 3 mg/kg s.c.) of the same molecule?
A: 102.2**** % of Group 1

Q: What about the “Normalized glucose AUC during Exendin-4 challenge” value (GLP1R humanized mice; 15 d post test article, test article 10 mg/kg s.c.) of the same molecule?
A: 107.5**** % of Group 1

Q: What about the “Normalized glucose AUC during Exendin-4 challenge” value (GLP1R humanized mice; 21 d post test article, test article 3 mg/kg s.c.) of the same molecule?
A: 93.2*** % of Group 1

Q: And the “Normalized glucose AUC during Exendin-4 challenge” value (GLP1R humanized mice; 21 d post test article, test article 10 mg/kg s.c.)?
A: 108.7**** % of Group 1

Q: What about the “Normalized glucose AUC during Exendin-4 challenge” value (GLP1R humanized mice; 29 d post test article, test article 3 mg/kg s.c.) of the same molecule?
A: 84.0*** % of Group 1

Q: What about the “Normalized glucose AUC during Exendin-4 challenge” value (GLP1R humanized mice; 29 d post test article, test article 10 mg/kg s.c.) of the same molecule?
A: 103.5**** % of Group 1

Q: What about the “Normalized glucose AUC during Exendin-4 challenge” value (GLP1R humanized mice; 65 d post test article, test article 3 mg/kg s.c.) of the same molecule?
A: 67.4 % of Group 1

Q: And the “Normalized glucose AUC during Exendin-4 challenge” value (GLP1R humanized mice; 65 d post test article, test article 10 mg/kg s.c.)?
A: 95.8**** % of Group 1

Q: What about the “Normalized glucose AUC during Exendin-4 challenge” value (GLP1R humanized mice; 80 d post test article, test article 3 mg/kg s.c.) of the same molecule?
A: 70.4 % of Group 1

Q: What about the “Normalized glucose AUC during Exendin-4 challenge” value (GLP1R humanized mice; 80 d post test article, test article 10 mg/kg s.c.) of the same molecule?
A: 74.2 % of Group 1

Q: And the “correction of Exendin-4 induced hypoglycemia” value (GLP1R humanized mice; single 3 mg/kg dose s.c.)?
A: correction of Exendin-4 induced hypoglycemia when Exendin-4 challenge was performed 1, 3, 7, 15, 21, and 29 days post mAb36986 administration, but not when the challenge was performed 65 and 80 days post mAb36986 administration

Q: And the “duration of correction of GLP1-induced hypoglycemia” value (GLP1R humanized mice; single dose, mice)?
A: one to two months

Q: And the ka ([1]; 25° C.)?
A: 30400 M⁻¹ s⁻¹

Q: And the kd ([1]; 25° C.)?
A: 0.000108 s⁻¹

Q: And the ka ([1]; 37° C.)?
A: 16300 M⁻¹ s⁻¹

Q: And the kd ([1]; 37° C.)?
A: 0.000987 s⁻¹

B2: mAb37639: fully human anti-GLP1R antagonist antibody; HCVR/LCVR SEQ ID NOs: 22/30; heavy/light chain 36/38 (antibody)
heavy: EVQLLESGGGVVQPGGSLRLSCVASGFTFSSYAMSWVRQAPGKGLEWVSSISGSGGSTDNADSVKGRFTISRDNSKNTLYLQMNSLRAEDTAVYYCAKDRITIFGVVLNGAFDIWGQGTMVTVSSASTKGPSVFPLAPCSRSTSESTAALGCLVKDYFPEPVTVSWNSGALTSGVHTFPAVLQSSGLYSLSSVVTVPSSSLGTKTYTCNVDHKPSNTKVDKRV[human IgG4 Fc with S228P (EU numbers) not printed]
light: DIQMTQSPSSLSASVGDRVTITCQASQDIRNYLNWYQQKPGKAPKLLIYDASNLETGVPSRFSGSGSGTDFTFTISSLQPEDIATYFCQQYDNLFTFGPGTKVDIKRTVAAPSVFIFPPSDEQLKSGTASVVCLLNNFYPREAKVQWKVDNALQSGNSQESVTEQDSKDSTYSLSSTLTLSKADYEKHKVYACEVTHQGLSSPVTKSFNRGEC
notes: fully human anti-GLP1R antagonist antibody; heavy/light chain 36/38
Q: With B2 as the molecule, how does the ka ([1]; 25° C.) read?
A: 11900 M⁻¹ s⁻¹

Q: And the kd ([1]; 25° C.)?
A: 0.00019 s⁻¹

Q: What about the ka ([1]; 37° C.) of the same molecule?
A: 17100 M⁻¹ s⁻¹

Q: And the kd ([1]; 37° C.)?
A: 0.00127 s⁻¹

Marks after values point to notes of the source that are not given here.
